{
  "source": "paper PMC4336329",
  "about": "(PLoS ONE, 2015)",
  "note": "The whole screen tested about 310,000 compounds, of which about 2,200 (0.71%) showed an effect of 50% or more. The effect is printed as a negative number. The list shows a part of the results.",
  "data": [
    {"molecular_target": "human ether-à-go-go-related gene (hERG) potassium channel (human, UniProt Q12809)", "sequence (Q12809 whole entry, looked up)": "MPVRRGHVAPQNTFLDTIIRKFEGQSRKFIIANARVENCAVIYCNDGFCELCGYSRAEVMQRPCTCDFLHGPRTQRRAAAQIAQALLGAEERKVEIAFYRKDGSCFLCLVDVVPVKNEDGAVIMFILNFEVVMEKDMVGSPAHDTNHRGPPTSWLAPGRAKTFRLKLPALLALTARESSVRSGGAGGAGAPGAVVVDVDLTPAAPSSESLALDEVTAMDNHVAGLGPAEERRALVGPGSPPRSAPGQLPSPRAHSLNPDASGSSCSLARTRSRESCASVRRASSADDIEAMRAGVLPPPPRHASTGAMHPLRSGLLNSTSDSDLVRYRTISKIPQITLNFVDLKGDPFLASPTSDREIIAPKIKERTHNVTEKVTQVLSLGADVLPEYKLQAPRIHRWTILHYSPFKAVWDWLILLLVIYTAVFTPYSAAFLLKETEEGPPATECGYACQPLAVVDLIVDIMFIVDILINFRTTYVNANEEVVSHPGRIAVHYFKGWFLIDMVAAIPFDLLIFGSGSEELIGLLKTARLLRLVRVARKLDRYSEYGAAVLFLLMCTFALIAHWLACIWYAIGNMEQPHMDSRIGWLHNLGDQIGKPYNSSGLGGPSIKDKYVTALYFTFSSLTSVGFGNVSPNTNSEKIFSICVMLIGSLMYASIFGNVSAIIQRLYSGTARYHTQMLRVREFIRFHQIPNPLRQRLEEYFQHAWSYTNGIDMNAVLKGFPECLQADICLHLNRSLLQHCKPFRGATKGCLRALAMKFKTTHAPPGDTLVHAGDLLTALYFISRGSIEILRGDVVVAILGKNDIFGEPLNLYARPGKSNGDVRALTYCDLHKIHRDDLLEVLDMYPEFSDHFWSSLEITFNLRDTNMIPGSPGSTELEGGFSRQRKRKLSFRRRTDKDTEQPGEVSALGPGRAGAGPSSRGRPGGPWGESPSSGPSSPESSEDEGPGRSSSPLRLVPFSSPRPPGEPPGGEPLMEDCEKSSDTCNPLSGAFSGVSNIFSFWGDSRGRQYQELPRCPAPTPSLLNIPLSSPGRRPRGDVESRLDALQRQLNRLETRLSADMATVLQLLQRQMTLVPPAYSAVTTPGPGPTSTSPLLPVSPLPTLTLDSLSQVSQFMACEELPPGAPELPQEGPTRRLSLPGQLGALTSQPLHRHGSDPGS", "experiment": "primary screen, population patch clamp on CHO cells stably expressing hERG", "units": {"hERG current change (%, negative = inhibition) at 1uM": "%"}, "values": [
      {"smiles": "COc1ccc(NC(=O)Cc2c(Sc3ccccc3)c3ccccc3n2C)cc1", "hERG current change (%, negative = inhibition) at 1uM": 7.55},
      {"smiles": "CCn1c(=O)c2c(nc3n2CCN3c2ccccc2)n(C)c1=O", "hERG current change (%, negative = inhibition) at 1uM": 6.42},
      {"smiles": "O=c1c2ccccc2c2ccccc2c(=O)n1-c1ccccc1", "hERG current change (%, negative = inhibition) at 1uM": 9.63},
      {"smiles": "CN(C)c1ccc(CN(C(=O)c2cccs2)C2CCS(=O)(=O)C2)cc1", "note": "(stereo not drawn)", "hERG current change (%, negative = inhibition) at 1uM": 11.5},
      {"smiles": "Cc1cccn2c(=O)c3cc(C(=O)NCc4cccnc4)c(=N)n(CC4CCCO4)c3nc12", "note": "(stereo not drawn)", "hERG current change (%, negative = inhibition) at 1uM": -78.5},
      {"smiles": "CCOc1ccc(/C=N/N2C(=O)C(CC(=O)Nc3ccc(F)cc3F)SC2=NC)cc1OC", "note": "(stereo not drawn)", "hERG current change (%, negative = inhibition) at 1uM": -1.14},
      {"smiles": "NC(=O)CSc1nnc(Cc2csc(Nc3ccc(F)cc3)n2)n1Cc1ccccc1", "hERG current change (%, negative = inhibition) at 1uM": 11.5},
      {"smiles": "C=CCn1c(=O)c2ccccc2n2c(SC(C)C(N)=O)nnc12", "note": "(stereo not drawn)", "hERG current change (%, negative = inhibition) at 1uM": 9.68},
      {"smiles": "COc1cccc(N2CC(C(=O)Nc3nnc(SCc4cccnc4)s3)CC2=O)c1", "note": "(stereo not drawn)", "hERG current change (%, negative = inhibition) at 1uM": -0.498},
      {"smiles": "COc1cc(-c2noc(C)c2C#CC2(O)CCCCC2)cc(OC)c1OC", "hERG current change (%, negative = inhibition) at 1uM": 18.9},
      {"smiles": "CC(=O)Nc1ccccc1Sc1ccccc1", "hERG current change (%, negative = inhibition) at 1uM": -10.4},
      {"smiles": "O=C(Cn1ncc2c3ccccc3n(Cc3ccc(F)cc3)c2c1=O)N1CCC2(CC1)OCCO2", "hERG current change (%, negative = inhibition) at 1uM": -8.53},
      {"smiles": "CCOc1ccc(CNC(=S)N/N=C/c2cccnc2)cc1", "hERG current change (%, negative = inhibition) at 1uM": 0.196},
      {"smiles": "CCCCNC(=O)c1cc2nc(-c3ccccc3)cc(C(F)(F)F)n2n1", "hERG current change (%, negative = inhibition) at 1uM": 0.288},
      {"smiles": "CCCCCCN=CC1=C(O)C(C(=O)OC)C(C)(C)CC1=O", "note": "(stereo not drawn)", "hERG current change (%, negative = inhibition) at 1uM": 7.79},
      {"smiles": "O=C(CN(CCc1ccccc1)C(=O)CNS(=O)(=O)c1ccccc1)NCC1CCCO1", "note": "(stereo not drawn)", "hERG current change (%, negative = inhibition) at 1uM": 7.11},
      {"smiles": "O=C(Nc1ccccc1)c1cccc(C(F)(F)F)c1", "hERG current change (%, negative = inhibition) at 1uM": 10.8},
      {"smiles": "COc1ccc(CCN2C(=O)CCC2(C)C(=O)NCc2cccnc2)cc1OC", "note": "(stereo not drawn)", "hERG current change (%, negative = inhibition) at 1uM": 17.7},
      {"smiles": "O=C(Cn1cccc1C(=O)c1ccccc1)NCCc1ccc(Cl)cc1", "hERG current change (%, negative = inhibition) at 1uM": 10.6},
      {"smiles": "Cc1oc(-c2ccc(Cl)cc2)nc1CS(=O)CC(=O)NC1CCCCCC1", "note": "(stereo not drawn)", "hERG current change (%, negative = inhibition) at 1uM": 14.4},
      {"smiles": "Cl.O=C(OCCN1CCCCC1)c1cccc(Cl)c1", "hERG current change (%, negative = inhibition) at 1uM": -3.25},
      {"smiles": "COc1ccc(NC(=O)CCS(=O)(=O)c2cccc3nonc23)cc1Cl", "hERG current change (%, negative = inhibition) at 1uM": 14.2},
      {"smiles": "CCC/C(=N/NC(=O)c1ccc2c(c1)OCO2)c1cccs1", "hERG current change (%, negative = inhibition) at 1uM": 8.98},
      {"smiles": "N#CC1=C(SCc2ccccc2)NC(=O)C(C#N)C12CCCC2", "note": "(stereo not drawn)", "hERG current change (%, negative = inhibition) at 1uM": 8.21},
      {"smiles": "CC1CN(C(=O)c2ccccc2Nc2ccc(SC(F)F)cc2)CC(C)O1", "note": "(stereo not drawn)", "hERG current change (%, negative = inhibition) at 1uM": -2.86},
      {"smiles": "COC(=O)C1CC(=O)N(Cc2ccccc2)C1", "note": "(stereo not drawn)", "hERG current change (%, negative = inhibition) at 1uM": 10.4},
      {"smiles": "CC(=O)N1CCN(c2ccc(NS(=O)(=O)c3ccc(C)cc3)cc2)CC1", "hERG current change (%, negative = inhibition) at 1uM": 11.3},
      {"smiles": "O=C(CCCn1c(=S)[nH]c2ccsc2c1=O)Nc1ccc2c(c1)OCCO2", "hERG current change (%, negative = inhibition) at 1uM": 6.26},
      {"smiles": "CC(=O)c1ccc(NC(=O)CSc2nc(Nc3ccccc3)nc(N3CCOCC3)n2)cc1", "hERG current change (%, negative = inhibition) at 1uM": 4.14},
      {"smiles": "Cc1ccc(C(=O)N2CCC3(CC2)Oc2ccc(F)cc2C(=O)C32CC(c3ccc(Cl)cc3)=NO2)s1", "note": "(stereo not drawn)", "hERG current change (%, negative = inhibition) at 1uM": 18.9},
      {"smiles": "C[C@H]1[C@@H](c2ccccc2)O[C@@H](c2ccccc2Br)N1C", "hERG current change (%, negative = inhibition) at 1uM": 6.25},
      {"smiles": "O=C(Nc1ccc(Cl)c(Cl)c1)Nc1nnc(-c2ccncc2)s1", "hERG current change (%, negative = inhibition) at 1uM": 7.89},
      {"smiles": "O=[N+]([O-])c1cc(S(=O)(=O)C(F)(F)F)ccc1N1CCN(c2ccccc2)CC1", "hERG current change (%, negative = inhibition) at 1uM": 2.35},
      {"smiles": "Cc1c(C(=O)Nc2ccc(F)c(F)c2)oc2ccc(S(=O)(=O)N3CCCCC3)cc12", "hERG current change (%, negative = inhibition) at 1uM": 8.33},
      {"smiles": "CS(=O)(=O)N1Cc2ccccc2CC1C(=O)Nc1ccccc1C(N)=O", "note": "(stereo not drawn)", "hERG current change (%, negative = inhibition) at 1uM": 5.22},
      {"smiles": "CC1(C)NC(=O)N(CCCCOc2ccc3ccccc3c2Cl)C1=O", "hERG current change (%, negative = inhibition) at 1uM": 10.8},
      {"smiles": "COc1ccccc1-c1nc(SCC(=O)Nc2cc(C)on2)c2c(=O)n(C)c(=O)n(C)c2n1", "hERG current change (%, negative = inhibition) at 1uM": -7.36},
      {"smiles": "CCOC(CNc1c([N+](=O)[O-])c(=O)n(C)c(=O)n1C)OCC", "hERG current change (%, negative = inhibition) at 1uM": 16.3},
      {"smiles": "O=C(NC1CCCCC1)c1ccc(S(=O)(=O)N2CCCCC2)cc1", "hERG current change (%, negative = inhibition) at 1uM": 7.45},
      {"smiles": "CCc1ccc(NC(=O)Cn2nc(C)c([N+](=O)[O-])c2C)cc1", "hERG current change (%, negative = inhibition) at 1uM": 11.6},
      {"smiles": "CC(=O)c1nc(N2C(=O)C3CC=C(C)CC3C2=O)sc1C", "note": "(stereo not drawn)", "hERG current change (%, negative = inhibition) at 1uM": 15.8},
      {"smiles": "CC1=NN(c2ccc(Cl)cc2)C(=O)/C1=C\\c1cccn1-c1ccc(S(N)(=O)=O)cc1", "hERG current change (%, negative = inhibition) at 1uM": 13.1},
      {"smiles": "CCN(CCn1cccn1)C(=O)CCc1nnc(CCCc2ccccc2)o1", "hERG current change (%, negative = inhibition) at 1uM": -11.6},
      {"smiles": "Cc1ccc(C)n1-c1ccc(N2CCOCC2)nc1", "hERG current change (%, negative = inhibition) at 1uM": 4.5},
      {"smiles": "CCN(C(=O)COC(=O)c1cc(=O)c2ccccc2o1)c1c(N)n(Cc2ccccc2)c(=O)[nH]c1=O", "hERG current change (%, negative = inhibition) at 1uM": -1.09},
      {"smiles": "Cc1ccc(NC(=O)CN(C)C(=O)Cn2ccsc2=N)cc1.Cl", "hERG current change (%, negative = inhibition) at 1uM": 16.9},
      {"smiles": "COC(=O)c1ccccc1NC(=O)CN1CCC(n2nnc3cc(C(F)(F)F)ccc32)CC1", "hERG current change (%, negative = inhibition) at 1uM": 12.3},
      {"smiles": "CCOc1ccc(C2/C(=C(/O)c3ccc(S(=O)(=O)N4CCCCC4)cc3)C(=O)C(=O)N2CCCOC)cc1OC", "note": "(stereo not drawn)", "hERG current change (%, negative = inhibition) at 1uM": 10.8},
      {"smiles": "Cc1nnsc1S(=O)c1ccc(Cl)c(Cl)c1", "note": "(stereo not drawn)", "hERG current change (%, negative = inhibition) at 1uM": 8.53},
      {"smiles": "Cc1nc2sc(C(=O)O)c(N)c2c2c1COC(C)(C)C2", "hERG current change (%, negative = inhibition) at 1uM": 9.47},
      {"smiles": "CC1(C)CC(=O)C(C=NCCCn2ccnc2)=C(O)C1", "hERG current change (%, negative = inhibition) at 1uM": 1.22},
      {"smiles": "COc1cc(NC(=O)COc2ccccc2Cl)ccc1NC(=O)C(C)C", "hERG current change (%, negative = inhibition) at 1uM": 13.6},
      {"smiles": "O=C(CSc1nnc(-c2ccco2)o1)c1ccc(F)c(F)c1", "hERG current change (%, negative = inhibition) at 1uM": 11.5},
      {"smiles": "CCC1(CC)C(=O)C2=C3C1[C@H](C(=O)OC)CC(C(=O)OC)C[C@H]3n1c(=O)n(C)c(=O)n1[C@H]2C", "note": "(stereo partly drawn)", "hERG current change (%, negative = inhibition) at 1uM": 17.9}
    ]}
  ]
}
